The whole screen tested about 270,000 compounds, of which about 620 (0.23%) were called active. Inconclusive means that the source gave no clear call. Such entries were picked first, then a sample of the others. Calls come from the whole dose curve; as a rule, active = well fitted inhibition curve with a large enough effect in the polarisation, with a control signal flat (not every such curve was filed as active); inconclusive = small, poorly fitted or top-dose-only effect, or effect the other way, or a change in a side signal; inactive = no such curve, though single readings can be large or run the other way; the % refers to the polarisation. A potency beside an inconclusive call is a rough fit, not a confirmed value. A note “side channel” means that the fit belongs to a control or component signal, not to the main read-out.
What follows are compounds tested against Menin (Homo sapiens) (UniProt O00255) (assay: qHTS Assay for Inhibitors Targeting the Menin-MLL Interaction in MLL Related Leukemias: Competition With Texas Red Labeled MLL-derived Mutant Peptide). Settings: fluorescence polarization; FP activity change, negative = inhibition: at 61.6 µM (top of the series).
Chain of UniProt O00255 (O00255 whole entry, looked up): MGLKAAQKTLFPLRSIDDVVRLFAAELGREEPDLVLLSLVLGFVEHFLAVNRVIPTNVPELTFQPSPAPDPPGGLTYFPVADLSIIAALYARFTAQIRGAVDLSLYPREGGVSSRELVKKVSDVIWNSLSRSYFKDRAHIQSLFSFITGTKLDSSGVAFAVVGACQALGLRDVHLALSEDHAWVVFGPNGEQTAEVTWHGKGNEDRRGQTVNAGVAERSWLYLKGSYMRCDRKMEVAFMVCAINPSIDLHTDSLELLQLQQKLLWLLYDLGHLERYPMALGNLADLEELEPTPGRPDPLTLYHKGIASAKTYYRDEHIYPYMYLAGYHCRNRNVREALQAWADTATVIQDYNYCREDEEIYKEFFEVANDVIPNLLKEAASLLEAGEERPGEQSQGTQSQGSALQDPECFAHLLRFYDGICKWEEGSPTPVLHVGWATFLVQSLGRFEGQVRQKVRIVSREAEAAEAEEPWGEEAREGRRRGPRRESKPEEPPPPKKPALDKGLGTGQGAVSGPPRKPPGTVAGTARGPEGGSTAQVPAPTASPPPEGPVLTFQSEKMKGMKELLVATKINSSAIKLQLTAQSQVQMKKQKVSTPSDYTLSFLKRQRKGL
`O=C(Nc1cc(S(=O)(=O)N2CCCCC2)ccc1O)c1ccccc1NS(=O)(=O)c1ccc(F)cc1` was tested, and the Potency was inconclusive: 28.2 µM [quencher, side channel, single point].
With `CC(=O)C1=C(O)C(=O)N(c2ccc(C)cc2)C1c1ccc([N+](=O)[O-])cc1` (configuration not stated) the Potency was inconclusive: 15.8 µM [quencher, side channel, partial curve].
`N#CC/C(N)=N/Nc1nc2ccccc2nc1Cc1ccccc1` was tested, and the Potency was inconclusive: 15.8 µM [quencher, side channel, partial curve].
`Cc1cccc(Cn2c(O)c(N=NC(=S)Nc3ccccc3F)c3ccccc32)c1` was tested, and the Potency was inconclusive: 14.1 µM [quencher, side channel, partial curve].
For `COCc1cc(CN2CCCC2)c(O)c2ncccc12`, the “FP activity change, negative = inhibition” value was inactive: -28.3%.
For `CCOC(=O)N1CCN(c2nc(-c3cccs3)cc(C(F)(F)F)n2)CC1`, the Potency was inconclusive: 0.794 µM [fluorescent, side channel, full curve, poor fit].
`CCCC1=Nc2cc(C(=O)N3CCCC3)ccc2Sc2ccc(C)cc21` was tested, and the Potency was inconclusive: 0.631 µM [inhibitor, full curve, poor fit].
For `CCCCCOC(=O)Cc1c(O)c2ccccc2n(C)c1=O`, the “FP activity change, negative = inhibition” value was inactive: 3.52%.
For `CCOC(=O)c1c(NC(C)=O)sc2c(OCCN(CC)CC)c(Br)ccc12`, the Potency was inconclusive: 3.16 µM [fluorescent, side channel, full curve].
For `CCc1nn(C(C)C(=O)NCc2ccc(Cl)cc2)c(=O)c2cc3occc3n12` (configuration not stated), the “FP activity change, negative = inhibition” value was inactive: -1.25%.
`CCc1nnc(NC(=O)CCC(=O)N2CCN(Cc3ccccc3)CC2)s1` was tested, and the “FP activity change, negative = inhibition” value was inactive: -17.8%.
`CC(C)S(=O)(=O)C1=NSC2=NC(=O)/C(=C\c3ccc(-c4cccc(C(=O)O)c4)o3)C(=N)N21` was tested, and the Potency was inconclusive: 12.6 µM [quencher, side channel, partial curve].
With `CC(C)CN1C(=O)c2ccc(C(=O)Nc3nccs3)cc2C1=O` the Potency was inconclusive: 25.1 µM [quencher, side channel, single point].
For `O=C(COc1cccc2c1CCN(Cc1ccccc1)C2=O)N1CCCCC1`, the Potency was inconclusive: 7.08 µM [fluorescent, side channel, partial curve].
With `CC1=NN(c2ccc(Cl)cc2)C(=O)/C1=C\c1cccn1-c1ccc(S(N)(=O)=O)cc1` the Potency was inconclusive: 31.6 µM [quencher, side channel, partial curve].
For `CN(c1ccccc1)S(=O)(=O)c1ccc(NC(=O)c2ccc(-c3ccccc3)cc2)cc1`, the Potency was active: 28.2 µM.
With `CCN(CC)S(=O)(=O)c1ccc(N2CCCC2)c(NS(=O)(=O)c2ccc(OC)cc2)c1` the “FP activity change, negative = inhibition” value was inactive: -7.21%.

— PubChem BioAssay AID1768 (National Center for Advancing Translational Sciences (NCATS), 2009)
Potency is the fitted concentration of half-maximal effect; tags give direction and shape of the fitted curve or compound fluorescence and quenching.
Throughout, for FP activity change, negative = inhibition: % of control where 0% means no effect.
